Consider 16 sequences from the supplement of paper PMC10338343.

± gives the standard deviation. This is a selection; strong and weak results do not stand in their true shares.
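Note: 1 nM active piRISC with 0.1 nM target library at 33 °C single turnover.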

The test system of the assay is MIWI (PIWIL1) piRISC loaded with piRNA #1 (30 nt). Put plainly: pre-steady-state target cleavage rate (min^-1); MIWI and MILI are mouse PIWI proteins and EfPiwi is from a freshwater sponge; tags in brackets are library labels; higher = faster piRNA-guided slicing of the target. The note with it: guide: piRNA #1 5'p-UGAGGUAGUAGGUUGUAUAGUAUCCAGAGG; auxiliary factor: 500 nM mouse GTSF1. Put shortly:
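A burst-and-steady-state fit was used to obtain the pre-steady-state cleavage rate. The input data were sequencing reads of uncleaved targets, normalised to depth and to weakly complementary targets, from a […] transcribed, DNA-blocked target RNA library mixed with 1 nM active affinity-purified piRISC holding one synthetic guide, with or without 500 nM GTSF1 partner protein, in HEPES–potassium acetate buffer at 33 °C for 0–8 or 0–960 min. Three trials were pooled and k3 was capped at 0.0001 min^-1.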
Take GGUCUGGAUACUAUACAACCUUCUUCCUCA: the “pre-steady-state target cleavage rate” value stood at 0.00514 ± 0.0021. The result for CCUCAGGAUACUAUAGAACCUACUACCUCA reads 0.504 ± 0.051; that for GGAGACCUAACUAUAGAACGUACUACCUCA, 0.0793 ± 0.015. The result for GGAGACCUAUGUAUACAAACUACUACCUCA reads 0.0797 ± 0.0098; that for GGAGUGGAUACUAUACAACCUUGUACCUCA, 0.0454 ± 0.0079. For GGAGAGGAUACUAUUCAACCUACUACGUCA, the “pre-steady-state target cleavage rate” value is 0.421 ± 0.036. Then GGAGACCAUUCUAUACAACCUACUACCUCA, with 1.32 ± 0.1. GGAGACCUAUCUAUACAACCUACUACCUA: the “pre-steady-state target cleavage rate” value amounted to 0.64 ± 0.049.

GGUCUGGUUACUAUACAACGUACUACCUCA: the “pre-steady-state target cleavage rate” value amounted to 0.939 ± 0.054. The result for GGUCUGGAUACUAAACAUCCUACUACCUCA reads 1.4 ± 0.086; that for GGAGACCUAACUAUACUACCUUCUACCUCA, 0.00903 ± 0.0034; that for GGUCUGGAUUCUAUACAACCUACUACCACA, 0.928 ± 0.073.

For the sequence CCUCUGGAUUCUAUUCAACCUACUACCUCA, the “pre-steady-state target cleavage rate” value is 1.12 ± 0.071. With GGAGACCUAUGUAUAUAACCUACUACCUCA, the “pre-steady-state target cleavage rate” value worked out at 0.126 ± 0.015. Then GGAGAGCAUACUAUACAACCUACUACCUGA, with 0.765 ± 0.063. Then GGAGACCUUACUAAACAAGCUACUACCUCA, with 0.473 ± 0.044.
